Some of the results follow. The full chains were built here from the parent and the listed change. Inactive controls read about 0.05.
B1: TEV protease; numbered along this chain (parent)
chain: MGESLFKGPRDYNPISSSICHLTNESDGHTTSLYGIGFGPFIITNKHLFRRNNGTLVVQSLHGVFKVKDTTTLQQHLVDGRDMIIIRMPKDFPPFPQKLKFREPQREERICLVTTNFQTKSMSSMVSDTSCTFPSGDGIFWKHWIQTKDGQCGSPLVSTRDGFIVGIHSASNFTNTNNYFTSVPKNFMELLTNQEAQQWVSGWRLNADSVLWGGHKVFMVKPEEPFQPVKEATQL

Variants of: B1
Test: raw area under fraction-flipped curve 0-4 h after induction (AUC4h, not background-subtracted), DNA-recorder readout of cleavage of the substrate (dimensionless); higher = more cleavage of the substrate by the protease variant
Conditions: temperature: 34 °C; time window: 0-4 h after rhamnose induction
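Note: Bxb1 expression induced with 0.2% (w/v) L-rhamnose at OD600 near 0.5, cultures sampled hourly, flipped fraction per protease–substrate barcode pair counted by paired-end Illumina sequencing.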

Variant | area with substrate ENCYFQS | area with substrate ENDYFQS | area with substrate ENGYFQS | area with substrate ENHYFQS | area with substrate ENKYFQS | area with substrate ENMYFQS | area with substrate ENSYFQS | area with substrate ENTYFQS | area with substrate ENEYFQS | area with substrate ENFYFQS | area with substrate ENIYFQS | area with substrate ENNYFQS | area with substrate ENQYFQS | area with substrate ENRYFQS | area with substrate ENVYFQS | area with substrate ENPYFQS | area with substrate ENYYFQS | area with substrate ENWYFQS
MGESLFKGPRDYNPISSSICHLTNESDGHTTSLYGIGFGPFIITNKHLFRRNNGTLVVQSLHGVFKVKDTTTLQQHLVDGRDMIIIRMPKDFPPFPQKLKFREPQREERICLVTTHFQTKSMSSMVSDTSCTFPSGDGIFWKHWIQTKDGQCGSPLVSTRDGFIVGIHSASNFTNTNNYFTSVPKNFMELLTNQEAQQWVSGWRLNADSVLWGGHKVFMVKPEEPFQPVKEATQL [N116H] | 0.0677 | 0.0635 | 0.0164 | 0.0463 | 0.0541 | 0.0451 | 0.0521 | 0.0857 | – | – | – | – | – | – | – | – | – | –
MGESLFKGPRDYNPISSSICHLTNESDGHTTSLYGIGFGPFIITNKHLFRRNNGTLVVQSLHGVFKVKDTTTLQQHLVDGRDMIIIRMPKDFPPFPQKLKFREPQREERICLVTTNFQTKSMSSMVSDTSCTFPSGIGIFWKHWIQTKDGQCGSPLVSTRDGFIVGIHSASNFTNTNNYFTSVPKNFMELLTNQEAQQWVSGWRLNADSVLWGGHKVFMVKPEEPFQPVKEATQL [D137I] | 0.0617 | 0.0494 | 0.0587 | 0.0564 | 0.0716 | 0.0964 | 0.0686 | 0.0682 | 0.0552 | 0.0624 | 0.12 | 0.0359 | 0.0623 | 0.0442 | 0.0825 | – | – | –
MGESLFKGPRDYNPISSSICHLTNESDGHTTSLYGIGFGPFIITNKHLFRRNNGTLVVQSLHGVFKVKDTTTLQQHLVDGRDMIIIRMPKDFPPFPQKLKFREPQREERICLFTTNFQTKSMSSMVSDTSCTFPSGDGIFWKHWIQTKDGQCGSPLVSTRDGFIVGIHSASNFTNTNNYFTSVPKNFMELLTNQEAQQWVSGWRLNADSVLWGGHKVFMVKPEEPFQPVKEATQL [V113F] | 0.0733 | – | 0.0867 | – | 0.0574 | 0.0768 | – | 0.0667 | – | 0.157 | – | 0.0654 | – | 0.0526 | 0.0692 | – | – | –
MGESLFKGPRDYNPISSSICHLTNESDGHTTSLYGIGFGPFIITNKHLFRRNNGTLVVQSLHGVFKVKDTTTLQQHLVDGRDMIIIRMPKDFPPFPQKLKFREPQREERICLVTTNFQYKSMSSMVSDTSCTFPSGDGIFWKHWIQTKDGQCGSPLVSTRDGFIVGIHSASNFTNTNNYFTSVPKNFMELLTNQEAQQWVSGWRLNADSVLWGGHKVFMVKPEEPFQPVKEATQL [T119Y] | 0.0599 | 0.0657 | – | 0.0412 | 0.0669 | – | 0.0672 | – | 0.0561 | 0.0559 | – | 0.0711 | 0.0861 | 0.0721 | 0.0755 | 0.0571 | – | –
MGESLFKGPRDYNPISSSICHLTNESDGHTTSLYGIGFGPFIITNKHLFRRNNGTLVVQSLHGVFKVKDTTTLQQHLVDGRDMIIIRMPKDFPPFPQKLKFREPQREERICLVTTNFQTKSMSSMVSDTSCTFPSGDGITWKHWIQTKDGQCGSPLVSTRDGFIVGIHSASNFTNTNNYFTSVPKNFMELLTNQEAQQWVSGWRLNADSVLWGGHKVFMVKPEEPFQPVKEATQL [F140T] | 0.0727 | 0.0636 | 0.0641 | 0.0591 | 0.0565 | 0.064 | – | 0.0551 | 0.0533 | – | – | – | 0.0609 | – | 0.0538 | – | 0.059 | –
MGESLFKGPRDYNPISSSICHLTNESDGHTTSLYGIGFGPFIITNKHLFRRNNGTLVVQSLHGVFKVKDTTTLQQHLVDGRDMIIIRMPKDFPPFPQKLKFREPQREERICLVTTNFQTKSMSSHVSDTSCTFPSGDGIFWKHWIQTKDGQCGSPLVSTRDGFIVGIHSASNFTNTNNYFTSVPKNFMELLTNQEAQQWVSGWRLNADSVLWGGHKVFMVKPEEPFQPVKEATQL [M125H] | 0.0652 | 0.0602 | 0.0703 | 0.0622 | 0.0546 | 0.103 | 0.0564 | 0.0597 | – | 0.0592 | – | – | 0.0637 | – | 0.069 | – | 0.059 | 0.0028
MGESLFKGPRDYNPISSSICHLTNESDGHTTSLYGIGFGPFIITNKHLFRRNNGTLVVQSLHGVFKVKDTTTLQQHLVDGRDMIIIRMPKDFPPFPQKLKFREPQVEERICLVTTNFQTKSMSSMVSDTSCTFPSGDGIFWKHWIQTKDGQCGSPLVSTRDGFIVGIHSASNFTNTNNYFTSVPKNFMELLTNQEAQQWVSGWRLNADSVLWGGHKVFMVKPEEPFQPVKEATQL [R106V] | 0.0745 | 0.0622 | 0.0745 | 0.0727 | 0.0624 | – | – | 0.0692 | 0.0787 | 0.0588 | 0.133 | 0.0634 | 0.0692 | 0.0584 | 0.0889 | – | – | 0.0546
MGESLFKGPRDYNPISSSICHLTNESDGHTTSLYGIGFGPFIITNKHLFRRNNGTLVVQSLHGVFKVKDTTTLQQHLVDGRDMIIIRMPKDFPPFPQKLKFREPQREERICLVTTNFQTKSMSSMVSDTSCTFPSGDGCFWKHWIQTKDGQCGSPLVSTRDGFIVGIHSASNFTNTNNYFTSVPKNFMELLTNQEAQQWVSGWRLNADSVLWGGHKVFMVKPEEPFQPVKEATQL [I139C] | 0.0331 | 0.0636 | 0.104 | – | 0.0658 | 0.0727 | 0.0622 | 0.062 | – | – | – | 0.0609 | 0.0588 | – | – | – | – | –
MGESLFKGPRDYNPISSSICHLTNESDGHTTSLYGIGFGPFIITNKHLFRRNNGTLVVQSLHGVFKVKDTTTLQQHLVDGRDMIIIRMPKDFPPFPQKLKFREPQREERICLVTTNFQTKSMSSMVSDTSCTFPSGDGRFWKHWIQTKDGQCGSPLVSTRDGFIVGIHSASNFTNTNNYFTSVPKNFMELLTNQEAQQWVSGWRLNADSVLWGGHKVFMVKPEEPFQPVKEATQL [I139R] | 0.0523 | 0.0421 | 0.0677 | 0.0709 | 0.0667 | 0.0663 | 0.0623 | 0.0491 | 0.061 | – | – | 0.0494 | 0.0588 | 0.0642 | 0.0593 | 0.0551 | – | –
